Test system: H1N1 (A/California/04/2009)
Experiment: Inhibition of infection and plaque formation in MDCK cell monolayers with or without trypsin
Type: cell-based, influenza A
Conditions: FIG. 4A

B1: MAB486 (antibody, V domains shown)
VH: QVQLVESGGGMVQPGGSRRLSCAASGFSFSTYGMHWVRQAPGKGLEWVAVISYDGEKQYYLDSVKGRFTISRDNSKDTLYLQMNSLTAEDTAVYYCVKESARRLLRYFEWLLSSPFDNWGQGALVTVSS
VL: DIVMTQSPDSLAVSLGERATINCKSSQTVLYTSNKKNYLAWYQQKPGQPPKLLIYWASTRESGVPDRFSGSGSGTDFTLTISSLQAEDVAVYYCQQYYTSPYTFGQGTKLEIK
modifications: CHAIN (1)...(129) MAB486 heavy chain sequence of variable domain; CHAIN (1)...(113) MAB486 light chain sequence of variable domain
For B1, the “neutralization in presence or absence of trypsin” value was “only in the absence of trypsin”.

From patent US10654915B2, “Antibodies useful in passive influenza immunization” (priority 2011, dated 2020)
